The RNAGym collection of RNA variant scans (doi:10.7554/elife.90254)
Read counts are not given, so values of variants with three or more changes are uncertain.

B1: LINE1-full (parent)
chain: UACGUAGGUGGUUUUCCCCUGAUAGUGCUAAGGGGGCCUGGAAGUUUGGACUGGGCAGAGCUCAACACAGCGUGGCAAAGUGGCUGUGGCUAGACUGCCUCUCUGGAUUCCUCGUCACUCAGCAGGGCAUCUCUGAGAGAAAUGCC

Variants of: B1
Assay: self-cleavage, relative activity (ratio to wild type); higher = more cleavage; in vitro, sequencing; the parent is a self-cleaving ribozyme

| Variant | self-cleavage |
| --- | --- |
| UACGUAGGUGGUCUUCCCCUGGUAGUGCUAAGGGGGCCUGGAAGUUUGGACUGGGCAUAGCUCAACACAGCGUAGCAAAGUGGCUGUGGCUAGACUGCCUCUCUGGAUUCCUCGUCACUCAGCAGGGCAUCUCUGAGAGAAAUGCC [U13C A22G G58U G74A] | 0 |
| UACGUAGGUGGUCUUCCCCUGAUAGUGCUGAGGGGGCCUGGAAGUUUGGACUGGGCAGAGCUCAACACAGCGUGGCAAAGUGGCUGUGGCUAGACUGCCUCUCUGGAUUCCUCGUCACUCAGCAUGGCAUCUCUGAGAGAAAUGCC [U13C A30G G125U] | 1.5 |
| UACGUAGGUGGUCUUCCCCUGAUAGUGCUGAGGGGGCCUGGAAGUUUGGACUGGGCAGAGCUCAACACAGCGUAGCAAAGUGGCUGUGGCUAGACUGCCUCUCUGGAUUCCUCGUCACUCAGCAGGGCAUCUCUGAGAGAAAUGCC [U13C A30G G74A] | 0.85 |
| UACGUAGGUGGUCUUCCCCUGGUAGUGCUAAGGGGGCCUGGAAGUUUGGACUGGGCAGAGCUCAACACAGCGUGGCAAAGGGGCUGUGGCUAGACUGCCUCUCUGGAUUCCUCGUCACUCAGCAGGGCAUCCCUGAGAGAAAUGCC [U13C A22G U81G U132C] | 0 |
| UACGUAGGUGGUCUUCCCCUGAUAGUGCUAGGGGGGCCUGGAAGUUUGGGCUGGGCAGAGCUCAACACAGCGUGGCAAAGUGGCUGUGGCUAGACUGCCUCUCUGGAUUCCUCGUCACUCAGCAGGGCAUCUCUGAGAGAAAUGCC [U13C A31G A50G] | 0 |
| UACGUAGGUGGUCUUCCCCUGAUAGUGCUAGGGGGGCCUGGAUGAUUGGACUGGGCAGAGCUCAACACAGCGUGGCAAAGUGGCUGUGGCUAGACUGCCUCUCUGGAUUCCUCGUCACUCAGCAGGGCAUCUCUGAGAGAAAUGCC [U13C A31G A43U U45A] | 1.33 |
| UACGUAGGUGGUCUUCCCCUGAUAGUGCUAAGGGGGCCUGGGAGUUUGGACUGGGCAGAGCUCAACACAGCGUGGCAAAGUGGCUGUGGCUAGACUGCCUCACUGGAUUCCUCGUCACUCAGCAGGGCACCUCUGAGAGAAAUGCC [U13C A42G U102A U130C] | 1.39 |
| UACGUAGGUGGUCUUCCCCUGAUAGUGCUAAGGGGGCCUGGAGGUUUGGACUGGGCAGAGCUCAACACAGCGUGGCAAAGUGGCUGUGGCUAGACUGCCUCUCUGGAUUCCUCGCCACUCAGCAGGGCAUCUCUGAGAGAAAUGCC [U13C A43G U115C] | 1.15 |
| UACGUAGGUGGUCUUCCCCUGAUUGUGCUAAGGGGGCCUGGAGGUUUGGACUGGGCAGAGCUCAACACAGCGUGGCAAAGUGGCUGUGGCUAGACUGCCUCUCUGGAUCCCUCGUCACUCAGCAGGGCAUCUCUGAGAGAAAUGCC [U13C A24U A43G U109C] | 0 |
| UACGUAGGUGGUCUUCCCCUGAUAGUGCUAUGGGGGCCUGGAAGUUUGGACUGGGCAGAGCUCAACACAGCGUGGCAAAGUGGCUGUGGCUAGACUGCCUCUCUGGAUUCCUCGUCACUCAGCAGGCCAUCUCUGAGAGAAAUGCC [U13C A31U G127C] | 0.81 |
| UACGUAGGUGGUCUUCCCCUGAUAGUGCUUAGGGGGCCUGGAAGUCUGGACUGGGCAGAGCUCAACACAGCGUGGCAAAGUGGCUGUGGCUAGACUGCCACUCUGGAUUCCUCGUCACUCAGCAGGGCAUCUCUGAGAGAAAUGCC [U13C A30U U46C U100A] | 1.11 |
| UACGUAGGUGGUCUUCCCCUGAUAGUGCUAGGGGGGCCAGGAAGUUUGGACUGGGCAGAGCUCAACACAGCGUGGCAAAGUGGCUGUGGCUAGACUGCCUCUCUGGAUUCCUCGUCACUCAGCAGGGCUUCUCUGAGAGAAAUGCC [U13C A31G U39A A129U] | 1.03 |
| UACGUAGGUGGUCUUCCCCUGGUAGUGCUAAGGGGGCCUGGAAGUUUGGACUGGGCAGAGCCCAACACAGCGUGGCAAAGUGGCUGUGGCUAGACUGCCUCUCUGGAUUCCUCGUCACUCAGCAGGGCUUCCCUGAGAGAAAUGCC [U13C A22G U62C A129U U132C] | 0.46 |
| UACGUAGGUGGUCUUCCCCUGAUAGUGCUAAGGGGGCCUGGGAGUUUGGACUGGGCAGAGCUCAACACAGCGUGGCGAAGUGGCUGUGGCUAGACUGCCUCUCUGGAUUCCUCGUCACUCAGCAGGGCAUCUCUGAGAGGAAUGCC [U13C A42G A77G A140G] | 1.97 |
| UACGUAGGUGGUCUUCCCCUGAUAGUGCUAAGGGGGCCUGGUAGUUUGGACUGGGCAGAGCUCAACACAGCGUGGCAAAGUGGCUGUGGCUAGACUGCCUCUCUGGAUUCCUCGUCACUCAGCAGGGCAUCUCUGAGAGCAAUGCC [U13C A42U A140C] | 1.41 |
| UACGUAGGUGGUCUUCCCCUGAUAGUGCUAAGGGGGCCUGGGGGUUUGGACUGGGCAGAGCUCAACACUGCGUGGCAAAGUGGCUGUGGCUAGACUGCCUCUCUGGAUUCCUCGUCACUCAGCAGGGCAUCUCCGAGAGAAAUGCC [U13C A42G A43G A69U U134C] | 0 |
| UACGUAGGUGGUCUUCCCCUGAUAGUGCUAAGGGGGCCUGGGAGUUUGGACUGGGCAGAGCUCAACACAGCGUGGCAAAGUGGCUGUGGCUAGACCGCCUCUCUGGAUUCCUCGUCACUCAGCAGGGCAUCUCUGAGAGAAACGCC [U13C A42G U96C U143C] | 0 |
| UACGUAGGUGGUCUUCCCCUGAUGGUGCUAAGGGGGCCUGGAAGUUUGGACUGGGCAGAGCUCAACCCAGCGUGGCAAAGUGGCCGUGGCUAGACUGCCUCUCUGGAUUCCUCGUCACUCAGCAGGGCAUCUCUGAGAUAAAUGCC [U13C A24G A67C U85C G139U] | 0.25 |
| UACGUAGGUGGUCUUCCCCUGAUAGUGCUAAGGGGGCCUGGGAGCUUGGACUGGGCAGAGCUCAACACAGCGUGGCAAGGUGGCUAUGGCUAGACUGCCUCUCUGGAUCCCUCGUCACUCAGCAGGGCAUCUCUGAGAGAAAUGCC [U13C A42G U45C A79G G86A U109C] | 0.14 |
| UACGUAGGUGGUCUUCCCCUGAUAGUGCUAAGGGGGCCUGGGAGUUUGGACUGGGCAGAGCUCAACACAGCGUGGCAAAGUGGCUGUGGCUAGACUGCCUCUCUGGAUACCUCGUCAAUCAGCAGGGCAUCUCUGAGAGAAAUGCC [U13C A42G U109A C118A] | 0.91 |
